Source: patent US20180305431A1 (Novo Nordisk, published 2018)

Experiments:
[1] = molecular target: T1, solubilised human IR-A (semipurified by wheat germ agglutinin chromatography from baby hamster kidney (BHK) … (human)); test: SPA competition vs [125I-A14Y]-human insulin, solubilised hIR-A, 0% HSA
T1 construct: mature; Detergent-solubilised holoreceptor captured by anti-IR mouse antibody 83-7 on SPA beads; the precursor is processed into alpha and beta chains; also called hIRA; human insulin receptor (IR), A isoform

[2] = molecular target: T2, membrane-associated human IGF-1R (plasma membranes of BHK cells stably transfected with the human IGF-IR … (human)); test: SPA competition vs [125I-Tyr31]-human IGF-1, membrane hIGF-1R, 0.1% HSA
T2 construct: whole, on cells; Receptor in purified plasma membranes, not on intact cells; also called hIGF1R; insulin-like growth factor 1 receptor
Method: The relative binding affinity for either of the membrane-associated human IR-A, IR-B or IGF-1R is determined by competition binding in a SPA setup. IR assays are performed in duplicate in 96-well OptiPlates (Perkin-Elmer Life Sciences). […] Assays are terminated by centrifugation of the plate at 2000 rpm for 2 minutes and bound radioactivity quantified by counting on a TopCount NXT (Perkin-Elmer Life Sciences).
IGF-1R assays are conducted essentially as for the IR binding assays except that membrane-associated IGF-1R and 50 pM [¹²5-Tyr31]-human IGF-1 were employed.

[3] = molecular target: T1, solubilised human IR-A (semipurified by …); test: SPA competition vs [125I-A14Y]-human insulin, solubilised hIR-A, 1.5% HSA

relative binding affinity (% rel to HI) [1]	relative binding affinity (% rel to HI) [2]	relative binding affinity (% rel to HI) [3]	Binder
138 % rel to HI	55 % rel to HI	9.9 % rel to HI	A22K(N(eps)hexadecanedioyl-gGlu-2xOEG), B3E, B27E, B28E, B29R, desB30 human insulin (ligand, Lys A22 acylated on N(eps) with hexadecanedioyl-gGlu-2xOEG, Two-chain acylated insulin analogue; also called Ex. No. 31) chain 1: not shown chain 2: FVEQHLCGSHLVEALYLVCGERGFFYEER
118 % rel to HI	35.2 % rel to HI	60.5 % rel to HI	A22K(N(eps)tetradecanedioyl-4xgGlu), B3E, B27E, B28R, desB29, desB30 human insulin (ligand, Lys A22 acylated on N(eps) with tetradecanedioyl-4xgGlu, Two-chain acylated insulin analogue; also called Ex. No. 14) chain 1: not shown chain 2: FVEQHLCGSHLVEALYLVCGERGFFYER
232 % rel to HI	65.1 % rel to HI	174 % rel to HI	A22K(N(eps)tetradecanedioyl-4xgGlu), B3E, B26E, B27P, B28R, desB29, desB30 human insulin (ligand, Lys A22 acylated on N(eps) with tetradecanedioyl-4xgGlu, Two-chain acylated insulin analogue; also called Ex. No. 13) chain 1: not shown chain 2: FVEQHLCGSHLVEALYLVCGERGFFEPR
90.9 % rel to HI	44.1 % rel to HI	75 % rel to HI	A22K(N(eps)tetradecanedioyl-4xgGlu), B3E, B27E, B28E, B29R, desB30 human insulin (ligand, Lys A22 acylated on N(eps) with tetradecanedioyl-4xgGlu, also called Ex. No. 3) chain 1: not shown chain 2: FVEQHLCGSHLVEALYLVCGERGFFYEER
133 % rel to HI	7.7 % rel to HI	74 % rel to HI	A22K(N(eps)tetradecanedioyl-4xgGlu), B3E, B26E, B28E, B29P, B30R human insulin (ligand, Lys A22 acylated on N(eps) with tetradecanedioyl-4xgGlu, Two-chain acylated insulin analogue; also called Ex. No. 21) chain 1: not shown chain 2: FVEQHLCGSHLVEALYLVCGERGFFETEPR
155 % rel to HI	102 % rel to HI	77.6 % rel to HI	A22K(N(eps)tetradecanedioyl-4xgGlu), B3E, B27P, B28E, B29R, desB30 human insulin (ligand, Lys A22 acylated on N(eps) with tetradecanedioyl-4xgGlu, Two-chain acylated insulin analogue; also called Ex. No. 38) chain 1: not shown chain 2: FVEQHLCGSHLVEALYLVCGERGFFYPER
96.7 % rel to HI	20.1 % rel to HI	10.7 % rel to HI	A22K(N(eps)hexadecanedioyl-4xgGlu), B3E, B27E, B29R, desB30 human insulin (ligand, Lys A22 acylated on N(eps) with hexadecanedioyl-4xgGlu, Two-chain acylated insulin analogue; also called Ex. No. 32) chain 1: not shown chain 2: FVEQHLCGSHLVEALYLVCGERGFFYEPR
111 % rel to HI	77.3 % rel to HI	77.2 % rel to HI	A22K(N(eps)tetradecanedioyl-4xgGlu), B3E, B28D, B29R, desB30 human insulin (ligand, Lys A22 acylated on N(eps) with tetradecanedioyl-4xgGlu, Two-chain acylated insulin analogue; also called Ex. No. 10) chain 1: not shown chain 2: FVEQHLCGSHLVEALYLVCGERGFFYTDR
104 % rel to HI	–	16.1 % rel to HI	A22K(N(eps)hexadecanedioyl-gGlu-2xOEG), B3E, B26E, B29R, desB30 human insulin (ligand, Lys A22 acylated on N(eps) with hexadecanedioyl-gGlu-2xOEG, Two-chain acylated insulin analogue; also called Ex. No. 42) chain 1: not shown chain 2: FVEQHLCGSHLVEALYLVCGERGFFETPR
–	32.7 % rel to HI	16.1 % rel to HI	A22K(N(eps)hexadecanedioyl-4xgGlu), B3E, B28D, B29R, desB30 human insulin (ligand, Lys A22 acylated on N(eps) with hexadecanedioyl-4xgGlu, also called Ex. No. 37) chain 1: not shown chain 2: FVEQHLCGSHLVEALYLVCGERGFFYTDR
102 % rel to HI	85.1 % rel to HI	13.5 % rel to HI	A22K(N(eps)hexadecanedioyl-gGlu-2xOEG), B3E, B28D, B29R, desB30 human insulin (ligand, Lys A22 acylated on N(eps) with hexadecanedioyl-gGlu-2xOEG, Two-chain acylated insulin analogue; also called Ex. No. 33) chain 1: not shown chain 2: FVEQHLCGSHLVEALYLVCGERGFFYTDR
120 % rel to HI	5.4 % rel to HI	–	A22K(N(eps)tetradecanedioyl-4xgGlu), B3E, B26E, B27E, B28E, B29R, desB30 human insulin (ligand, Lys A22 acylated on N(eps) with tetradecanedioyl-4xgGlu, Two-chain acylated insulin analogue; also called Ex. No. 36) chain 1: not shown chain 2: FVEQHLCGSHLVEALYLVCGERGFFEEER
170 % rel to HI	9.82 % rel to HI	152 % rel to HI	A22K(N(eps)tetradecanedioyl-4xgGlu), B3Q, B26E, B28E, B29R, desB30 human insulin (ligand, Lys A22 acylated on N(eps) with tetradecanedioyl-4xgGlu, also called Ex. No. 40) chain 1: not shown chain 2: FVQQHLCGSHLVEALYLVCGERGFFETER
119 % rel to HI	13.6 % rel to HI	101 % rel to HI	A22K(N(eps)tetradecanedioyl-4xgGlu), B3E, B26E, B28E, B29R, desB30 human insulin (ligand, Lys A22 acylated on N(eps) with tetradecanedioyl-4xgGlu, Two-chain acylated insulin analogue; also called Ex. No. 11) chain 1: not shown chain 2: FVEQHLCGSHLVEALYLVCGERGFFETER

Second part, the binder before the results:

Binder	relative binding affinity (% rel to HI) [1]	relative binding affinity (% rel to HI) [2]	relative binding affinity (% rel to HI) [3]
A22K(N(eps)tetradecanedioyl-4xgGlu), B3E, B26E, B27E, B28R, desB29, desB30 human insulin (ligand, Lys A22 acylated on N(eps) with tetradecanedioyl-4xgGlu, Two-chain acylated insulin analogue; also called Ex. No. 18) chain 1: not shown chain 2: FVEQHLCGSHLVEALYLVCGERGFFEER	–	7.1 % rel to HI	113 % rel to HI
A22K(N(eps)hexadecanedioyl-4xgGlu), B3E, B27E, B28E, B29R, desB30 human insulin (ligand, Lys A22 acylated on N(eps) with hexadecanedioyl-4xgGlu, Two-chain acylated insulin analogue; also called Ex. No. 28) chain 1: not shown chain 2: FVEQHLCGSHLVEALYLVCGERGFFYEER	103 % rel to HI	26 % rel to HI	10.6 % rel to HI
A22K(N(eps)tetradecanedioyl-4xgGlu), B3E, B28E, B29P, B30R human insulin (ligand, Lys A22 acylated on N(eps) with tetradecanedioyl-4xgGlu, Two-chain acylated insulin analogue; also called Ex. No. 20) chain 1: not shown chain 2: FVEQHLCGSHLVEALYLVCGERGFFYTEPR	123 % rel to HI	43.5 % rel to HI	85.3 % rel to HI
A22K(N(eps)tetradecanedioyl-4xgGlu), B3E, B27E, B28E, B29P, B30R human insulin (ligand, Lys A22 acylated on N(eps) with tetradecanedioyl-4xgGlu, Two-chain acylated insulin analogue; also called Ex. No. 22) chain 1: not shown chain 2: FVEQHLCGSHLVEALYLVCGERGFFYEEPR	115 % rel to HI	35.7 % rel to HI	89.2 % rel to HI
A22K(N(eps)tetradecanedioyl-gGlu-2xOEG), B3E, B27E, B28E, B29R, desB30 human insulin (ligand, Lys A22 acylated on N(eps) with tetradecanedioyl-gGlu-2xOEG, Two-chain acylated insulin analogue; also called Ex. No. 1) chain 1: not shown chain 2: FVEQHLCGSHLVEALYLVCGERGFFYEER	108 % rel to HI	66.3 % rel to HI	71.5 % rel to HI
A22K(N(eps)tetradecanedioyl-gGlu-2xOEG), B3E, B28D, B29R, desB30 human insulin (ligand, Lys A22 acylated on N(eps) with tetradecanedioyl-gGlu-2xOEG, Two-chain acylated insulin analogue; also called Ex. No. 7) chain 1: not shown chain 2: FVEQHLCGSHLVEALYLVCGERGFFYTDR	100 % rel to HI	124 % rel to HI	67.6 % rel to HI
A22K(N(eps)hexadecanedioyl-gGlu-2xOEG), B3E, B27P, B28E, B29R, desB30 human insulin (ligand, Lys A22 acylated on N(eps) with hexadecanedioyl-gGlu-2xOEG, Two-chain acylated insulin analogue; also called Ex. No. 29) chain 1: not shown chain 2: FVEQHLCGSHLVEALYLVCGERGFFYPER	157 % rel to HI	99.4 % rel to HI	14.3 % rel to HI
A22K(N(eps)hexadecanedioyl-4xgGlu), B3E, B27P, B28E, B29R, desB30 human insulin (ligand, Lys A22 acylated on N(eps) with hexadecanedioyl-4xgGlu, Two-chain acylated insulin analogue; also called Ex. No. 30) chain 1: not shown chain 2: FVEQHLCGSHLVEALYLVCGERGFFYPER	168 % rel to HI	64.1 % rel to HI	10.8 % rel to HI
A22K(N(eps)Hexadecanedioyl-gGlu-2xOEG), B3E, B27E, B29R, desB30 human insulin (ligand, Lys A22 acylated on N(eps) with hexadecanedioyl-gGlu-2xOEG, Two-chain acylated insulin analogue; also called Ex. No. 25) chain 1: not shown chain 2: FVEQHLCGSHLVEALYLVCGERGFFYEPR	158 % rel to HI	55.3 % rel to HI	9.9 % rel to HI
A22K(N(eps)tetradecanedioyl-4xgGlu), B3E, B26E, B29R, desB30 human insulin (ligand, Lys A22 acylated on N(eps) with tetradecanedioyl-4xgGlu, Two-chain acylated insulin analogue; also called Ex. No. 12) chain 1: not shown chain 2: FVEQHLCGSHLVEALYLVCGERGFFETPR	180 % rel to HI	13 % rel to HI	121 % rel to HI
A22K(N(eps)tetradecanedioyl-gGlu-2xOEG), B3E, B27P, B28E, B29R, desB30 human insulin (ligand, Lys A22 acylated on N(eps) with tetradecanedioyl-gGlu-2xOEG, Two-chain acylated insulin analogue; also called Ex. No. 5) chain 1: not shown chain 2: FVEQHLCGSHLVEALYLVCGERGFFYPER	162 % rel to HI	170 % rel to HI	86 % rel to HI
A22K(N(eps)tetradecanedioyl-4xgGlu), B3E, B27E, B29R, desB30 human insulin (ligand, Lys A22 acylated on N(eps) with tetradecanedioyl-4xgGlu, Two-chain acylated insulin analogue; also called Ex. No. 6) chain 1: not shown chain 2: FVEQHLCGSHLVEALYLVCGERGFFYEPR	100 % rel to HI	55.7 % rel to HI	57.4 % rel to HI
A22K(N(eps)tetradecanedioyl-4xgGlu), B3Q, B26E, B29R, desB30 human insulin (ligand, Lys A22 acylated on N(eps) with tetradecanedioyl-4xgGlu, also called Ex. No. 39) chain 1: not shown chain 2: FVQQHLCGSHLVEALYLVCGERGFFETPR	136 % rel to HI	18.4 % rel to HI	105 % rel to HI
A22K(N(eps)hexadecanedioyl-4xgGlu), B3E, B26E, B29R, desB30 human insulin (ligand, Lys A22 acylated on N(eps) with hexadecanedioyl-4xgGlu, Two-chain acylated insulin analogue; also called Ex. No. 41) chain 1: not shown chain 2: FVEQHLCGSHLVEALYLVCGERGFFETPR	141 % rel to HI	–	19.6 % rel to HI
